Measurements from the supplement of paper PMC8728848.
Some of the results follow.

Experiments:
Experiment in all cases: glycan array binding signal (z-score within array); higher = stronger binding
Settings in all cases: glycan notation: IUPAC condensed, linker removed
[1] = molecular target: GlcNAc(b1-3)Gal(b1-4)GlcNAc(b1-3)GalNAc
In short: (§1)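 Arrays were curated from the Consortium for Functional Glycomics database, 3228 in total, and kept only where the protein sequence was available. Binding is expressed as a within-array Z-score. This score was averaged across arrays of the same protein sequence at different concentrations or buffers and across linkers, and negative values can be read as non-binding.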

[2] = molecular target: GlcNAc(b1-3)Gal(b1-4)GlcNAc(b1-3)[GlcNAc(b1-3)Gal(b1-4)GlcNAc(b1-3)]GalNAc
In short: as §1

[3] = molecular target: GlcNAc(b1-3)Gal(b1-4)GlcNAc(b1-6)[Gal(b1-3)]GalNAc
In short: as §1

[4] = molecular target: GlcNAc(b1-3)Gal(b1-4)GlcNAc(b1-6)[GlcNAc(b1-3)Gal(b1-3)]GalNAc
In short: as §1

[5] = molecular target: GlcNAc(b1-3)Gal(b1-4)GlcNAc(b1-6)[GlcNAc(b1-3)]Gal(b1-4)GlcNAc
In short: as §1

GlcNAc(b1-3)GalNAc = molecular target: GlcNAc(b1-3)GalNAc
In short: as §1

GlcNAc(b1-3)Man = molecular target: GlcNAc(b1-3)Man
In short: as §1

[6] = molecular target: GlcNAc(b1-3)[GlcNAc(b1-4)][GlcNAc(b1-6)]GlcNAc
In short: as §1

[7] = molecular target: GlcNAc(b1-3)[GlcNAc(b1-6)]Gal(b1-4)GlcNAc
In short: as §1

[8] = molecular target: GlcNAc(b1-3)[GlcNAc(b1-6)]GalNAc
In short: as §1

[9] = molecular target: GlcNAc(b1-4)Gal(b1-4)GlcNAc
In short: as §1

GlcNAc(b1-4)GlcNAc = molecular target: GlcNAc(b1-4)GlcNAc
In short: as §1

[10] = molecular target: GlcNAc(b1-4)GlcNAc(b1-4)GlcNAc
In short: as §1

[11] = molecular target: GlcNAc(b1-4)GlcNAc(b1-4)GlcNAc(b1-4)GlcNAc(b1-4)GlcNAc
In short: as §1

[12] = molecular target: GlcNAc(b1-4)GlcNAc(b1-4)GlcNAc(b1-4)GlcNAc(b1-4)GlcNAc(b1-4)GlcNAc
In short: as §1

[13] = molecular target: GlcNAc(b1-4)[GlcNAc(b1-6)]GalNAc
In short: as §1

[14] = molecular target: GlcNAc(b1-6)Gal(b1-4)GlcNAc
In short: as §1

GlcNAc(b1-6)GalNAc = molecular target: GlcNAc(b1-6)GalNAc
In short: as §1

[15] = molecular target: GlcNAc6S(b1-3)Gal(b1-4)GlcNAc
In short: as §1

Kdn(a2-3)Gal(b1-3)GalNAc = molecular target: Kdn(a2-3)Gal(b1-3)GalNAc
In short: as §1

Kdn(a2-3)Gal(b1-3)GlcNAc = molecular target: Kdn(a2-3)Gal(b1-3)GlcNAc
In short: as §1

Kdn(a2-3)Gal(b1-4)Glc = molecular target: Kdn(a2-3)Gal(b1-4)Glc
In short: as §1

Kdn(a2-3)Gal(b1-4)GlcNAc = molecular target: Kdn(a2-3)Gal(b1-4)GlcNAc
In short: as §1

[16] = molecular target: Kdn(a2-3)Gal(b1-4)[Fuc(a1-3)]GlcNAc
In short: as §1

Kdn(a2-6)Gal(b1-4)GlcNAc = molecular target: Kdn(a2-6)Gal(b1-4)GlcNAc
In short: as §1

[17] = molecular target: Man(a1-2)Man(a1-2)Man(a1-3)Man
In short: as §1

[18] = molecular target: Man(a1-2)Man(a1-2)Man(a1-6)[Man(a1-3)]Man
In short: as §1

Man(a1-2)Man(a1-3)Man = molecular target: Man(a1-2)Man(a1-3)Man
In short: as §1

[19] = molecular target: Man(a1-2)Man(a1-3)[Man(a1-2)Man(a1-6)]Man
In short: as §1

[20] = molecular target: Man(a1-2)Man(a1-3)[Man(a1-2)Man(a1-6)]Man(a1-6)[Man(a1-2)Man(a1-2)Man(a1-3)]Man
In short: as §1

[21] = molecular target: Man(a1-2)Man(a1-3)[Man(a1-2)Man(a1-6)]Man(a1-6)[Man(a1-2)Man(a1-2)Man(a1-3)]Man(b1-4)GlcNAc(b1-4)GlcNAc
In short: as §1

[22] = molecular target: Man(a1-2)Man(a1-3)[Man(a1-6)]Man(a1-6)[Man(a1-2)Man(a1-3)]Man(b1-4)GlcNAc(b1-4)GlcNAc
In short: as §1

[23] = molecular target: Man(a1-2)Man(a1-6)[Man(a1-3)]Man(a1-6)[Man(a1-2)Man(a1-2)Man(a1-3)]Man
In short: as §1

[24] = molecular target: Man(a1-2)Man(a1-6)[Man(a1-3)]Man(a1-6)[Man(a1-2)Man(a1-2)Man(a1-3)]Man(b1-4)GlcNAc(b1-4)GlcNAc
In short: as §1

Man(a1-3)[Man(a1-6)]Man = molecular target: Man(a1-3)[Man(a1-6)]Man
In short: as §1

[25] = molecular target: Man(a1-3)[Man(a1-6)]Man(a1-6)[Man(a1-2)Man(a1-3)]Man(b1-4)GlcNAc(b1-4)GlcNAc
In short: as §1

[26] = molecular target: Man(a1-3)[Man(a1-6)]Man(a1-6)[Man(a1-3)]Man
In short: as §1

B1: CPA (Cicer arietinum) (protein)
chain: MAFSYLNLVLVTLTTLFFLQTTKVKSQKSVSFHITNFTISRPSITLQGTAEFLPNVLLLNDIEHPVFVVGRALYSKPITLWNNKTGKVASFVTSFTFDVQDLKKTVPGHGLVFFLAPSGSEIPFSSDGGNLGVVDGKNAFNRFVGVEFDNFVNSWDPKYSHVGINVNSLISTKTVKWNRVSGELVKVSIVYDSVSTTLTVIVTYKNGQISILSQLVDLKAVLPDTVNIGFSASTTLVSPRQLHNIHSWSFTSTFET
With B1 the “glycan array binding signal (z-score)” value [1] was -0.569, the “glycan array binding signal (z-score)” value [2] was -0.654 and the “glycan array binding signal (z-score)” value [3] was -0.405. The “glycan array binding signal (z-score)” value [4] was -0.443, the “glycan array binding signal (z-score)” value [5] was -0.335 and the “glycan array binding signal (z-score)” value (GlcNAc(b1-3)GalNAc) was -0.373. The “glycan array binding signal (z-score)” value (GlcNAc(b1-3)Man) was -0.558, the “glycan array binding signal (z-score)” value [6] was -0.57 and the “glycan array binding signal (z-score)” value [7] was 0.167. For the same binder, the “glycan array binding signal (z-score)” value [8] was -0.586, the “glycan array binding signal (z-score)” value [9] was -0.734 and the “glycan array binding signal (z-score)” value (GlcNAc(b1-4)GlcNAc) was 1.55. The “glycan array binding signal (z-score)” value [10] was 1.39, the “glycan array binding signal (z-score)” value [11] was 1.45 and the “glycan array binding signal (z-score)” value [12] was 2.35. For the same binder, the “glycan array binding signal (z-score)” value [13] was 0.015, the “glycan array binding signal (z-score)” value [14] was 0.404 and the “glycan array binding signal (z-score)” value (GlcNAc(b1-6)GalNAc) was 0.357. The “glycan array binding signal (z-score)” value [15] was -0.056, the “glycan array binding signal (z-score)” value (Kdn(a2-3)Gal(b1-3)GalNAc) was 0.091 and the “glycan array binding signal (z-score)” value (Kdn(a2-3)Gal(b1-3)GlcNAc) was -0.656. The “glycan array binding signal (z-score)” value (Kdn(a2-3)Gal(b1-4)Glc) was -0.762, the “glycan array binding signal (z-score)” value (Kdn(a2-3)Gal(b1-4)GlcNAc) was -0.585 and the “glycan array binding signal (z-score)” value [16] was 0.215. For the same binder, the “glycan array binding signal (z-score)” value (Kdn(a2-6)Gal(b1-4)GlcNAc) was -0.065, the “glycan array binding signal (z-score)” value [17] was -0.392 and the “glycan array binding signal (z-score)” value [18] was -0.38. The “glycan array binding signal (z-score)” value (Man(a1-2)Man(a1-3)Man) was -0.559, the “glycan array binding signal (z-score)” value [19] was -0.461 and the “glycan array binding signal (z-score)” value [20] was -0.462. The “glycan array binding signal (z-score)” value [21] was 0.049, the “glycan array binding signal (z-score)” value [22] was -0.274 and the “glycan array binding signal (z-score)” value [23] was -0.429. For the same binder, the “glycan array binding signal (z-score)” value [24] was 0.228, the “glycan array binding signal (z-score)” value (Man(a1-3)[Man(a1-6)]Man) was -0.635 and the “glycan array binding signal (z-score)” value [25] was 4.19. The “glycan array binding signal (z-score)” value [26] was -0.493.
